In the supplement of paper PMC3334620:
Over roughly 33,000 sequences, “E-score (-0.5 to 0.5)” has its median near -0.036; the highest 2% begin near 0.37. Some of the results follow.

These sequences were tested against T1, Yer064c (UniProt P40041) (assay: PBM E-score (8-mer binding enrichment) (E-score (-0.5 to 0.5)); higher = stronger / more preferred TF binding; most listed sequences are background and not binding sites). Conditions: protein concentration: 200 nM; construct: GST-full length.
T1 sequence: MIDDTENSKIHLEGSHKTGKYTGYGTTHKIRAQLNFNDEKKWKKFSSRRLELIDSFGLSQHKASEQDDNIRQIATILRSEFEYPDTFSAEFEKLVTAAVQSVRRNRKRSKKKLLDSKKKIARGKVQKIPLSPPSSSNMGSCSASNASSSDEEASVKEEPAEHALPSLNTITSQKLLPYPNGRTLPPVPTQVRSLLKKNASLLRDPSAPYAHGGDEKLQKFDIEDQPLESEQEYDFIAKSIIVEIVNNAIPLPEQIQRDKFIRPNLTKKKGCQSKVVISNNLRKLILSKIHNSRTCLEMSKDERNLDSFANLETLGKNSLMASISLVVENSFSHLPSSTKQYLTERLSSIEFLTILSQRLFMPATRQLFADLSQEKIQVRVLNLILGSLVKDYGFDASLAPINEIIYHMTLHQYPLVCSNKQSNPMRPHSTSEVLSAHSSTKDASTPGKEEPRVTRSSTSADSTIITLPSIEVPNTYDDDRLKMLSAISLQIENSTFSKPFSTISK
Experimental: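 Universal 'all 10-mer' protein binding microarrays (Agilent AMADID 015681) probed with GST-tagged S. cerevisiae TFs (full-length or DBD) made by in vitro transcription/translation (PURExpress), about 100-200 nM. Bound TF was detected with fluorescent anti-GST. Each ungapped 8-mer (which stands for itself and its reverse complement) is scored by the PBM enrichment score (E-score), a modified Wilcoxon-Mann-Whitney statistic from -0.5 to +0.5, computed with the Universal PBM Analysis Suite. Scale: above 0.35 generally sequence-specific binding.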

Row | Sequence | PBM E-score
1 | ATAACAGA | 0.0464
2 | CAGTAGGA | -0.145
3 | CACCGGTC | -0.0816
4 | AGGGTTGA | 0.147
5 | AAATCCTT | -0.0617
6 | TACCGGCA | 0.0388
7 | CTCGAATC | 0.187
8 | CCCGGGCA | 0.029
9 | AGACCGGG | -0.232
10 | ACGCAAGG | -0.0851
11 | CATGTCCG | -0.312
12 | AGCGCTAG | -0.0217
13 | CTACCTCA | 0.027
14 | CCTTCAGA | -0.112
15 | CCGGACGA | -1e-05
16 | CACACGCG | -0.0582
17 | AATCTTCC | 0.0855
18 | GAGATTCC | -0.152
19 | AGAAGTCT | 0.148
20 | ATGTTAGG | -0.0737
21 | ATCTAATG | -0.0531
22 | CCATTAGA | -0.0406
23 | AGAACACC | -0.221
24 | CTACATTA | -0.199
25 | CACAAACA | 0.0738

Row | Sequence | PBM E-score
26 | ACACAAGA | 0.0726
27 | ATTACGAC | 0.209
28 | GAGTCCCA | 0.311
29 | AGTTAGGG | -0.218
30 | AAACTTAA | 0.096
31 | CCCGTTCC | -0.205
32 | AATAGGAG | -0.113
33 | GACGCAGC | -0.352
34 | TAGAAAGA | 0.113
35 | ACTAGGAG | 0.13
36 | AGAAGCGC | -0.141
37 | AATTGAAG | -0.0108
38 | ACTCTTAC | 0.304
39 | CGGTCCGA | -0.0061
40 | AAGTGTAG | -0.0192
41 | AAAAAGTG | 0.0196
42 | GTGTACGA | 0.0297
43 | ACAAGCAC | -0.145
44 | CCTGAAAA | -0.0854
45 | ATAGTGAT | 0.139
46 | GCCCAGAC | -0.355
47 | CCGGTCGC | -0.0954
48 | AATAAGTA | -0.00487
49 | ATCTTTCA | -0.0692
50 | AGTCTTGC | 0.291

Row | Sequence | PBM E-score
51 | AGTCCAAC | 0.108
52 | GGGGTTCA | -0.156
53 | AGATTTGA | 0.171
54 | GCGCCCTA | -0.186
55 | AAGCCCTT | -0.102
56 | AGGGGACG | -0.313
57 | CATACCCA | 0.124
58 | CTGGTTCA | 0.108
59 | AGAACAAC | -0.259
60 | CGACACTA | -0.0389
61 | CATTTATA | 0.176
62 | GCCGTGGA | -0.134
63 | AGTAAAAT | 0.199
64 | ATTGGAAA | -0.0751
65 | AACCACAC | 0.0277
66 | TATCAATA | -0.0261
67 | GTACCTTA | 0.0141
68 | CAATGCAA | -0.0727
69 | GCCTAACA | 0.00393
70 | CTGACAGA | 0.0357
71 | CGGAGACC | -0.18
72 | CTATTAAG | -0.0862
73 | TCACGGAA | 0.0488
74 | AGCCGCCA | 0.00272
75 | CGGGCTCA | -0.131

Row | Sequence | PBM E-score
76 | AAGCATCC | -0.42
77 | GTGTTACA | 0.0612
78 | GACGACAA | 0.0426
79 | AAACGCTA | 0.00495
80 | AGGCGATA | -0.126
81 | GCCGTAGC | -0.273
82 | CGTCAGAG | -0.136
83 | ATGTCCCG | -0.154
84 | GGGCCTAC | -0.327
85 | CACTGGCG | -0.0189
86 | CCTACAAA | -0.0658
87 | GCACCACC | -0.429
88 | AGACCCGG | -0.0102
89 | CGGTGAGA | 0.094
90 | ACCCGAGA | -0.0768
91 | ACTGTGCT | -0.0468
92 | CAATACAC | 0.0718
93 | AAGCCGAA | 0.0789
94 | ACTGACTA | 0.447
95 | GTTTAATA | 0.126
96 | ACCTCTAT | -0.212
97 | CCGTACCC | -0.188
98 | CGCCGCCA | -0.145
99 | AAAACCTA | -0.155
100 | AAGTAAAA | 0.0955

Row | Sequence | PBM E-score
101 | AATCCAAG | 0.0868
102 | TACCTATA | -0.103
103 | TCCGGACA | -0.199
104 | GCTCGTAA | -0.103
105 | ACTCGGCA | 0.0706
106 | GCCACTAA | 0.0205
107 | GCACACAA | -0.0167
108 | AAGTGTCA | -0.0462
109 | AGGGAGAT | -0.11
110 | AAGTGAAC | -0.0697
111 | CAAATGTG | 0.0204
112 | GTGCTCCA | -0.192
113 | ACAAAAGC | 0.0026
114 | ATGATACC | -0.135
115 | AACGCTGC | -0.21
116 | GTAGGTGA | 0.0923
117 | CGTAAGCC | -0.198
118 | TCAGATGA | 0.298
119 | AGTAATAG | -0.00571
120 | AGGGGCCA | -0.256
121 | CTCGACTA | 0.299
122 | CGATGGCC | -0.148
123 | CAGGGCAC | -0.229
124 | GCAGTACC | -0.0237
125 | TACACGGA | 0.0134

Row | Sequence | PBM E-score
126 | GCCACAGC | -0.0981
127 | ATCTGTAG | -0.0362
128 | AAGCGACG | -0.25
129 | AACTCAAA | 0.189
130 | TATCTAAA | 0.0652
131 | AAAAAGCC | 0.0279
132 | AGATTGTA | 0.0108
133 | ATGGGGAG | -0.0664
134 | GGTTTCGA | -0.0361
135 | CCGGTAAG | -0.0744
136 | GCGCTCTA | -0.11
137 | TAACGCGA | -0.115
138 | GATCGCGA | 0.0739
139 | TGACGAAA | 0.0822
140 | TACGGAGA | 0.178
141 | CTGTACAA | -0.0149
142 | TAGAAGAA | -0.0204
143 | CGCCATAC | -0.054
144 | AGTTTTAT | 0.048
145 | CCGAAGTA | 0.0802
146 | CAAATAAC | -0.0739
147 | AATCAACT | 0.314
148 | ACATCGCC | -0.0494
149 | CAATGCCA | -0.221
150 | CGTTCTTA | -0.119

Row | Sequence | PBM E-score
151 | AACCATTC | 0.0438
152 | TGGCATAA | 0.0552
153 | CGACATAG | -0.0127
154 | GGGGCGAC | 0.186
155 | CGTACGCA | -0.195
156 | TCCTGCAA | 0.0154
157 | CTGGAGAC | -0.0698
158 | TGACTGCA | 0.404
159 | AAAGGACG | -0.176
160 | AAAAATTG | -0.139
161 | TGCATCAA | -0.0146
162 | ATATAAAG | -0.0351
163 | GGCGCATA | -0.146
164 | CTCTGAAG | 0.0349
165 | CATGAGAC | 0.322
166 | ACTGCCTC | -0.182
167 | CAAGACCG | -0.316
168 | AACCGTCT | -0.124
169 | TGGCCTAA | -0.157
170 | ATCATCCA | 0.306
171 | CACATCGC | 0.0595
172 | AAAACGTC | -0.0495
